# Experimental data taken from the supplement of paper PMC8728848.
# The other results are listed elsewhere or left out.
# Columns and labels:
# Test in all cases: glycan array binding signal (z-score within array); higher = stronger binding
# Conditions in all cases: glycan notation: IUPAC condensed, linker removed
# [1] = molecular target: Gal(b1-3)GlcNAc(b1-3)Gal(b1-4)GlcNAc(b1-2)[Gal(b1-3)GlcNAc(b1-3)Gal(b1-4)GlcNAc(b1-6)]Man(a1-6)[Gal(b1-3)GlcNAc(b1-3)Gal(b1-4)GlcNAc(b1-2)Man(a1-3)]Man(b1-4)GlcNAc(b1-4)[Fuc(a1-6)]GlcNAc
# Procedure, shortened: (§1)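 Arrays were curated from the Consortium for Functional Glycomics database, 3228 in total, and kept only where the protein sequence was available. Binding is expressed as a within-array Z-score. This score was averaged across arrays of the same protein sequence at different concentrations or buffers and across linkers, and negative values can be read as non-binding.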
# [2] = molecular target: Gal(b1-3)GlcNAc(b1-3)Gal(b1-4)GlcNAc(b1-3)Gal(b1-4)GlcNAc(b1-2)[Gal(b1-3)GlcNAc(b1-3)Gal(b1-4)GlcNAc(b1-3)Gal(b1-4)GlcNAc(b1-6)]Man(a1-6)[Gal(b1-3)GlcNAc(b1-3)Gal(b1-4)GlcNAc(b1-3)Gal(b1-4)GlcNAc(b1-2)Man(a1-3)]Man(b1-4)GlcNAc(b1-4)[Fuc(a1-6)]GlcNAc
# Procedure, shortened: as §1
# [3] = molecular target: Gal(b1-3)GlcNAc(b1-3)Gal(b1-4)GlcNAc(b1-6)[Gal(b1-3)GlcNAc(b1-3)]Gal(b1-4)Glc
# Procedure, shortened: as §1
# [4] = molecular target: Gal(b1-3)GlcNAc(b1-3)Gal(b1-4)[Fuc(a1-3)]GlcNAc
# Procedure, shortened: as §1
# [5] = molecular target: Gal(b1-3)GlcNAc(b1-3)Gal(b1-4)[Fuc(a1-3)]GlcNAc(b1-6)[Gal(b1-3)GlcNAc(b1-3)]Gal(b1-4)Glc
# Procedure, shortened: as §1
# [6] = molecular target: Gal(b1-3)GlcNAc(b1-3)GalNAc
# Procedure, shortened: as §1
# [7] = molecular target: Gal(b1-3)GlcNAc(b1-6)Gal(b1-4)GlcNAc
# Procedure, shortened: as §1
# [8] = molecular target: Gal(b1-3)GlcNAc(b1-6)GalNAc
# Procedure, shortened: as §1
# [9] = molecular target: Gal(b1-3)GlcNAc(b1-6)[Gal(b1-3)]GalNAc
# Procedure, shortened: as §1
# [10] = molecular target: Gal(b1-3)GlcNAc6S
# Procedure, shortened: as §1
# [11] = molecular target: Gal(b1-3)[Fuc(a1-4)]GlcNAc
# Procedure, shortened: as §1
# [12] = molecular target: Gal(b1-3)[Fuc(a1-4)]GlcNAc(b1-2)Man
# Procedure, shortened: as §1
# [13] = molecular target: Gal(b1-3)[Fuc(a1-4)]GlcNAc(b1-2)Man(a1-3)[Gal(b1-3)[Fuc(a1-4)]GlcNAc(b1-2)Man(a1-6)]Man(b1-4)GlcNAc(b1-4)[Fuc(a1-6)]GlcNAc
# Procedure, shortened: as §1
# [14] = molecular target: Gal(b1-3)[Fuc(a1-4)]GlcNAc(b1-3)Gal(b1-3)[Fuc(a1-4)]GlcNAc
# Procedure, shortened: as §1
# [15] = molecular target: Gal(b1-3)[Fuc(a1-4)]GlcNAc(b1-3)Gal(b1-4)[Fuc(a1-3)]GlcNAc
# Procedure, shortened: as §1
# [16] = molecular target: Gal(b1-3)[Fuc(a1-4)]GlcNAc(b1-6)GalNAc
# Procedure, shortened: as §1
# [17] = molecular target: Gal(b1-3)[GlcNAc(b1-6)]GalNAc
# Procedure, shortened: as §1
# [18] = molecular target: Gal(b1-3)[Neu5Ac(a2-6)]GalNAc
# Procedure, shortened: as §1
# [19] = molecular target: Gal(b1-3)[Neu5Ac(a2-6)]GlcNAc(b1-4)Gal(b1-4)Glc
# Procedure, shortened: as §1
# [20] = molecular target: Gal(b1-3)[Neu5Ac(b2-6)]GalNAc
# Procedure, shortened: as §1
# [21] = molecular target: Gal(b1-4)Gal
# Procedure, shortened: as §1
# [22] = molecular target: Gal(b1-4)GalNAc(a1-3)[Fuc(a1-2)]Gal(b1-4)GlcNAc
# Procedure, shortened: as §1
# [23] = molecular target: Gal(b1-4)GalNAc(b1-3)[Fuc(a1-2)]Gal(b1-4)GlcNAc
# Procedure, shortened: as §1
# [24] = molecular target: Gal(b1-4)Glc
# Procedure, shortened: as §1
# [25] = molecular target: Gal(b1-4)Glc6S
# Procedure, shortened: as §1
# [26] = molecular target: Gal(b1-4)GlcNAc
# Procedure, shortened: as §1
# [27] = molecular target: Gal(b1-4)GlcNAc(a1-6)Gal(b1-4)GlcNAc
# Procedure, shortened: as §1
# [28] = molecular target: Gal(b1-4)GlcNAc(b1-2)Man
# Procedure, shortened: as §1
# [29] = molecular target: Gal(b1-4)GlcNAc(b1-2)Man(a1-3)Man(b1-4)GlcNAc(b1-4)GlcNAc
# Procedure, shortened: as §1
# [30] = molecular target: Gal(b1-4)GlcNAc(b1-2)Man(a1-3)[Gal(b1-4)GlcNAc(b1-2)Man(a1-6)]Man(b1-4)GlcNAc(b1-4)GlcNAc
# Procedure, shortened: as §1
# [31] = molecular target: Gal(b1-4)GlcNAc(b1-2)Man(a1-3)[Gal(b1-4)GlcNAc(b1-2)Man(a1-6)]Man(b1-4)GlcNAc(b1-4)[Fuc(a1-6)]GlcNAc
# Procedure, shortened: as §1
# [32] = molecular target: Gal(b1-4)GlcNAc(b1-2)Man(a1-3)[Gal(b1-4)GlcNAc(b1-2)Man(a1-6)][Gal(b1-4)GlcNAc(b1-4)]Man(b1-4)GlcNAc(b1-4)[Fuc(a1-6)]GlcNAc
# Procedure, shortened: as §1
# [33] = molecular target: Gal(b1-4)GlcNAc(b1-2)Man(a1-3)[Gal(b1-4)GlcNAc(b1-2)Man(a1-6)][GlcNAc(b1-4)]Man(b1-4)GlcNAc(b1-4)[Fuc(a1-6)]GlcNAc
# Procedure, shortened: as §1
# [34] = molecular target: Gal(b1-4)GlcNAc(b1-2)Man(a1-3)[GlcNAc(b1-2)Man(a1-6)]Man(b1-4)GlcNAc(b1-4)GlcNAc
# Procedure, shortened: as §1
# [35] = molecular target: Gal(b1-4)GlcNAc(b1-2)Man(a1-3)[GlcNAc(b1-4)][Gal(b1-4)GlcNAc(b1-2)Man(a1-6)]Man(b1-4)GlcNAc(b1-4)GlcNAc
# Procedure, shortened: as §1
# [36] = molecular target: Gal(b1-4)GlcNAc(b1-2)Man(a1-3)[Man(a1-6)]Man(b1-4)GlcNAc(b1-4)GlcNAc
# Procedure, shortened: as §1
# [37] = molecular target: Gal(b1-4)GlcNAc(b1-2)Man(a1-6)Man(b1-4)GlcNAc(b1-4)GlcNAc
# Procedure, shortened: as §1
# [38] = molecular target: Gal(b1-4)GlcNAc(b1-2)Man(a1-6)[GlcNAc(b1-2)Man(a1-3)]Man(b1-4)GlcNAc(b1-4)GlcNAc
# Procedure, shortened: as §1
binder,measurement,setting,value
PX9937B-bvu-524-33-524 (Bacteroides vulgatus) (protein) GTAYWKNPDQFTAFNTGLHALLREKSYNFFLLGEPRADIYGDNPIGGEASQGMERLPFNTINKENVGISNYGDMYKIINQINQMIAKTTETTILTEATQNYYLGEAYGMRAYLYFHLLRSWGDVVLYLDYTEGQNLDLSNITKGVSPATEVMEQIKKDIQASENAFGSDYSFKLGRHFWSAAATQMLKGEAYLWSGRQMNGGNSDYTIAKNAFENVKKADVGLVTSSFKDIFSFENKKNKEMIFTIHNGKDEYEMWGGYYRMRLIPAQDKMVKIYCDENGNSFVGTPDAQLNGLTQLQVRREFYFKGFRNNDTRWTTSLKAVYKKDAQGVVSYFGPITYKFQGTMLEGGSTRSFLDDFPIYRYADCLLQLAMAKVLLGEDPTEEINAVRERAYGSKYFNEHKAEIAYPNDNDPEFYTDNKWMKPDNAGALEAILKERLREFMFEGKRWYDIRLLGWDYVHQYSSAEQSRLLWPIDAGTLTNNSALKQTPGYE,glycan array binding signal (z-score),[1],0.885
same,glycan array binding signal (z-score),[2],1.01
same,glycan array binding signal (z-score),[3],-0.185
same,glycan array binding signal (z-score),[4],-0.351
same,glycan array binding signal (z-score),[5],-0.385
same,glycan array binding signal (z-score),[6],-0.379
same,glycan array binding signal (z-score),[7],-0.085
same,glycan array binding signal (z-score),[8],-0.198
same,glycan array binding signal (z-score),[9],7.68
same,glycan array binding signal (z-score),[10],-0.182
same,glycan array binding signal (z-score),[11],-0.342
same,glycan array binding signal (z-score),[12],-0.215
same,glycan array binding signal (z-score),[13],0.238
same,glycan array binding signal (z-score),[14],-0.336
same,glycan array binding signal (z-score),[15],-0.109
same,glycan array binding signal (z-score),[16],-0.019
same,glycan array binding signal (z-score),[17],-0.011
same,glycan array binding signal (z-score),[18],-0.391
same,glycan array binding signal (z-score),[19],-0.031
same,glycan array binding signal (z-score),[20],-0.496
same,glycan array binding signal (z-score),[21],-0.616
same,glycan array binding signal (z-score),[22],-0.508
same,glycan array binding signal (z-score),[23],-0.268
same,glycan array binding signal (z-score),[24],-0.336
same,glycan array binding signal (z-score),[25],-0.368
same,glycan array binding signal (z-score),[26],-0.306
same,glycan array binding signal (z-score),[27],-0.482
same,glycan array binding signal (z-score),[28],-0.274
same,glycan array binding signal (z-score),[29],-0.338
same,glycan array binding signal (z-score),[30],0.187
same,glycan array binding signal (z-score),[31],0.493
same,glycan array binding signal (z-score),[32],-0.02
same,glycan array binding signal (z-score),[33],-0.553
same,glycan array binding signal (z-score),[34],0.006
same,glycan array binding signal (z-score),[35],-0.463
same,glycan array binding signal (z-score),[36],0.053
same,glycan array binding signal (z-score),[37],-0.347
same,glycan array binding signal (z-score),[38],-0.149
